B1: LINE1-full (parent)
chain: UACGUAGGUGGUUUUCCCCUGAUAGUGCUAAGGGGGCCUGGAAGUUUGGACUGGGCAGAGCUCAACACAGCGUGGCAAAGUGGCUGUGGCUAGACUGCCUCUCUGGAUUCCUCGUCACUCAGCAGGGCAUCUCUGAGAGAAAUGCC

Read counts are not given, so values of variants with three or more changes are uncertain.

The data set covers variants of B1. Description: self-cleavage, relative activity (ratio to wild type); higher = more cleavage; in vitro, sequencing; the parent is a self-cleaving ribozyme.
With UACGUAGGUGGUUUUCCCCUGAUUGUGCUAAGGGGGCCUGGAAGUUUGGACUGGGCAGAGCUCAACACAGCGUGGCAAAGUGGCUGUGGCUAGACUGCCUCUCUGGAUUCCUCGUCACUCAGCGGGGCGUCUCUGAGAGAAAUGCC [A24U A124G A129G], the self-cleavage turned out to be 0.95.

Consider UACGUAGGUGGUUUUCCCCUGAUAAUGCUAAGGGGGCCUGGAAGUUUGGACUGGGCAGAGCUCAACACAGCGUGGCAAAGUGGCUGUGGCUAGACUGCCUCUCUGGAUUCCUCGUCACUCAGCUGGGCAUCUCUGAGAGGAAUGCC [G25A A124U A140G], for which the self-cleavage came to 0.53. UACGUAGGUGGUUUUCCCCUGAUUGUGCUAAGGGGGCCUGGAAGUUUGGACUGGGCAGAGCUCAACACAGCGUGGCAAAGUGGCUGUGGCUAGAUUGCCUCUCUGGAUUCCUCGUCACUCAGCAGGGCAUCUCUGAGAGUAAUGCC [A24U C95U A140U]: the self-cleavage is 0.23.

UACGUAGGUGGUUUUCCCCUGAUAAUGCUAAGGGGGCCUGGAAGUUUGCACUGGGCAGAGCUCAACACAGCGUGGCAAAGUGGCUGUGGCUAGACUGCCUCUCUGGGUUCCUCGUCACUCAGCAGGGCAUCUCUGAGAGAAAUGCC [G25A G49C A107G]: the self-cleavage is 1.88. As to UACGUAGGUGGUUUUCCCCUGAUUGUGCUAAGGGGGCCUGGAAGUUUGGACUGGGCAGAGCUCAACACAGCGUGGCGAAGUGGCUGUGGCUAGACUGCCUCUCUGGGUUCCUCGUCACUCAGCAGGGCAUCUCUGAGAGAAAUGCC [A24U A77G A107G], the self-cleavage came out at 0.79.

For UACGUAGGUGGUUUUCCCCUGAUUGUGCUAAGGGGGCCUGGAAGUCUGGACCGGGCAGAGCUCAACACAGCGUGGCAAAGUGGCUGUGGCUAGACUGCCUCUCUGGAUUCCUCGUCACUCAGCAGGGCAUCUCUGAGAGAAAUGCC [A24U U46C U52C], the self-cleavage was determined as 0. Under UACGUAGGUGGUUUUCCCCUGAUUGUGCUAAGGGGGCCAGGAAGUUUGGACUGGGCAGAGCUCAACACAGCGUGGCAAAGUGGCUGUGGCUAGACUGCCUCUCUGGAUUCCUCGACACUCAGCAGGGCAUCUCUGAGAGAAAUGCC [A24U U39A U115A] stands 1.52; under UACGUAGGUGGUUUUCCCCUGAUUGUGCUAAGGGGGCCUGGAAGUUUGGACUGGGCAGAGCUCAACACAGCGUGGCAAAGUGGCUGUGACUAGACUGCCUCUCUGGGUUCCUCGUCACUCAGCAGGGCAUCUCUGAGAGAAAUGCC [A24U G89A A107G], 0.03; under UACGUAGGUGGUUUUCCCCUGAUUGUGCUAAAGGGGCCUGGAAGUUAGGACCGGGCAGAGCUCAACACAGCGUGGCAAAGUGGCUGUGGCUAGACUGCCUCUCUGGAUUCCUCGUCACUCAGCAGGGCAUCUCUGAGGGAAAUGCC [A24U G32A U47A U52C A138G], 0.47. For UACGUAGGUGGUUUUCCCCUGAUUGUGCUAAGGGGGCCUGGAAGUUUGGACUGGGCAGAGCUCAACACAGCGUGGCAAAGUGGCUGUGGCUAGACUGCCUCUCUGGAUUCCUCGUCACACAGCAGGGCAUCACUGAGAGAAGAGCC [A24U U119A U132A A142G U143A], the self-cleavage is 1.38. Under UACGUAGGUGGUUUUCCCCUGAUAAUGCUAAGGGGGCCUGGAAGCUUGGACUGGGCAGAGCUCAACACAGCGUGGCAAAGUGGCUGUGGCUAGACUGCCUCUCUGGAUUCCUCGUCACUCAGCAGGGCAUCUCAGAGAGAAAUGCC [G25A U45C U134A] stands 1.07. In the case of UACGUAGGUGGUUUUCCCCUGAUUGUGCUAAGGGGGCUUGGAAGUUUGGACUGGGCAGAGCUCAACACAGCGUGGCAAAGUGGCUGUGGCUAGACUGCCUCUCUGGAUUCCUCGCCACUCAGCAGGGCAUCUCUGAGAGAAAUGCC [A24U C38U U115C], the self-cleavage was 1.55. Then UACGUAGGUGGUUUUCCCCUGAUUGUGCUAAGGGGGCCUGGAAGUUAGGACUGGGCGGAGCUCAACACAGCGUGGCAAAGUGGCUAUGGCUAGACUGCCUCUCUGGAUUCCUCGUCACUCAGCAGGGCAUCUCUGAGAGAAAUGCC [A24U U47A A57G G86A], with 0.11. Under UACGUAGGUGGUUUUCCCCUGAUUGUGCUAAGGGGGCCUGGAAGUUUGGACUGGGCAGAGCUCAACACAGCGUGGCAAAGUGGAUGUGGCUAGACUGCCUCUCUGGAUUCCUCGUCACUCAGCAGGUCAUCACUGAGAGAAAUGCC [A24U C84A G127U U132A] stands 0.1.

On to UACGUAGGUGGUUUUCCCCUGAUUGUGCUAAGGGGGCCUGGAAGUUUGGACUGGGCAGAGCUCAACACAGCGUAGCAAAGUGGCUGUGGCUUGACUGCCUCUCUGGAUUCCUCGUCACUCAGCAGGGCAUCUCUGAGAGAAAUGCC [A24U G74A A92U], for which the self-cleavage stood at 0.82. As to UACGUAGGUGGUUUUCCCCUGAUUGUGCUAAGGGGGCCUGGAAGUUUGGACUGGGCAGAGCUCAACCCAGCGUGGCAAAGUGGCUGUGGCUAGACUGCCUCUCAGGAUUCCUCGUCACUCAGCAGGGCAUCUCUGAGAGAAAUGCC [A24U A67C U104A], the self-cleavage stood at 0.1. Under UACGUAGGUGGUUUUCCCCUGAUUGUGCUAAGGGGGCCUGGAAGUUUGGACUGGGCAGAGCCCAACACAGCGUGGCAAAGUGGCUGUGGCUAGACUGCCUCUCUGGAGUCCUCGUCACUCAGCAGGGCAUCUCUGAGAGAAAUGCC [A24U U62C U108G] stands 0. Under UACGUAGGUGGUUUUCCCCUGAUAAUGCCAAGGGGGCCUGGAAGUUUGGACUGGGCAGAGCCCAACACAGCGUGGCAAAGUGGCUGUGGCUAGACUGCCUCUCUGGAUUCCUCGUCACUCAGCAGGGCAUCUCUGAGAGAAAUGCC [G25A U29C U62C] stands 0.03; under UACGUAGGUGGUUUUCCCCUGAUUGUGCUAAGGGGGCCAGGAAGUUUGGACUGGGCAGAGCUCAACACAGCGUGGCAAAGUGGCUGUGGCUAGACUGCCUCUCUGGAUUCCUCGUCACUCAGCGGGGCAUCUCUGAGAGAAAUGCC [A24U U39A A124G], 1.73.

UACGUAGGUGGUUUUCCCCUGAUUGUGCUAAGGGGGCCUGGAAGUUUGGACUGGGCAGAGCUCAACACAGCGUGGCAAAGUGGCUGCGGCUAGACUGCCUCUCUGGAUUCCUCGUCACUCAGCAGGGCAUCUCAGAGAGAGAUGCC [A24U U87C U134A A141G]: the self-cleavage came out at 0.07.

These data come from the RNAGym collection of RNA variant scans (doi:10.7554/elife.90254).
